Experimental data: paper PMC4336329 (PLoS ONE, 2015)
Screen size: about 310,000 compounds; about 14,000 (4.5%) showed an effect of 50% or more. The effect is printed as a negative number. The list shows a part of the results.

Each compound was assayed against human ether-à-go-go-related gene (hERG) potassium channel (human, UniProt Q12809) (assay: primary screen, population patch clamp on CHO cells stably expressing hERG).
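Note: peak tail current of the secondary pulse compared with the same well before compound.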

Sequence of human ether-à-go-go-related gene (hERG) potassium channel (Q12809 whole entry, looked up): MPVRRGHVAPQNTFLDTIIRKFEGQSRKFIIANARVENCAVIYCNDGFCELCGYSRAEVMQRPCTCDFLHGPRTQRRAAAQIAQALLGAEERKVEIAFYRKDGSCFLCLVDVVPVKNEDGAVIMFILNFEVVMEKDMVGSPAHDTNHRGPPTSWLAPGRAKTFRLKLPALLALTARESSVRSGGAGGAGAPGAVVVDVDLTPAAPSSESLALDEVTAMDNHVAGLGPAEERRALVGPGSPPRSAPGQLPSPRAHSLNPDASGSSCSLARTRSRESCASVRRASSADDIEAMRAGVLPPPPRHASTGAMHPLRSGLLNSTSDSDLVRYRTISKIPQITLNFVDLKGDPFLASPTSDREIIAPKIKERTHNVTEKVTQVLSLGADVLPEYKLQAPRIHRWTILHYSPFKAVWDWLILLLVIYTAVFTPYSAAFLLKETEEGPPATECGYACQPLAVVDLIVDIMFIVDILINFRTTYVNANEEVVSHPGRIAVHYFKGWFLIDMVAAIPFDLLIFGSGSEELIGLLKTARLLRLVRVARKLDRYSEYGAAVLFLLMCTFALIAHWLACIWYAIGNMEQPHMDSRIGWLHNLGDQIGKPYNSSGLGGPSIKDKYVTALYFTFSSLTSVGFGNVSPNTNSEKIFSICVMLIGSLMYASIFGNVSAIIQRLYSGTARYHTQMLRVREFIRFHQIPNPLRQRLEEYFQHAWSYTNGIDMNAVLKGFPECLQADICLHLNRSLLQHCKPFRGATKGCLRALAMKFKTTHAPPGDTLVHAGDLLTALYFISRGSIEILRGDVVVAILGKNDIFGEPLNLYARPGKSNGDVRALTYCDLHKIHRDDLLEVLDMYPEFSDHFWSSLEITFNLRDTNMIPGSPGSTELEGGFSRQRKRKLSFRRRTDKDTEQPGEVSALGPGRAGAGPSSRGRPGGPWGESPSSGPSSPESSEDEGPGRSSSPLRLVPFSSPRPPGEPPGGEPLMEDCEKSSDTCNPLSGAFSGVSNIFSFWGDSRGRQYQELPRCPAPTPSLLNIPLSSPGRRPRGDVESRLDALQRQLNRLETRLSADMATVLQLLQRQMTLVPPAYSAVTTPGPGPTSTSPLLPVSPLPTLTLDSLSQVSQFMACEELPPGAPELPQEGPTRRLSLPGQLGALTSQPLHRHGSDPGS

Row | Structure (SMILES) | hERG current change (%, negative = inhibition) at 10uM
1 | COc1nc(C#N)nc(N(C)C)n1 | -7.09%
2 | CCN(CC)C(=N)/C(C#N)=N/Nc1ccc(C)cc1 | -56.6%
3 | COc1ccccc1NC(=S)NCCc1ccc(F)cc1 | 1.82%
4 | Nc1nc2nc(-c3ccc(Cl)cc3)cc(C(F)(F)F)n2n1 | 11.6%
5 | CCN1c2ccccc2NC2C1C(C(C)=O)C(=O)N2c1ccc(Cl)cc1 (stereo not drawn) | -8.55%
6 | Cc1cc2ccccc2c(=O)n1CC(=O)NCC(=O)N(C)C1CCCCC1 | 4.06%
7 | CCCn1c(SCC(=O)NC(C)C)nc2sc3c(c2c1=O)CCC3 | 15.5%
8 | Cn1c(SCC(=O)N2CCN(c3ccccc3)CC2)nnc1-c1ccccc1 | -11.2%
9 | CC(Oc1ccccc1)C(=O)Nc1ccccc1O (stereo not drawn) | 17%
10 | CCN(CC(=O)NC1CCS(=O)(=O)C1)C(=O)c1ccc(OC)c([N+](=O)[O-])c1 (stereo not drawn) | 12%
11 | Cc1cc(NC(=O)CSc2ccc3nnc(-c4ccc(F)cc4)n3n2)no1 | 1.2%
12 | CCN1CC(CNCc2cn(-c3ccc(OC)cc3)nc2-c2ccccc2Cl)CC1=O (stereo not drawn) | -24.4%
13 | Cc1sc2ncnc(OCC(=O)NC(C)C)c2c1C | 6.65%
14 | Cn1c(C(=O)N2CCCC(C(=O)NCc3cccs3)C2)cc2sccc21 (stereo not drawn) | -16.1%
15 | CC(=O)n1cc([C@@H]2C=C(C(=O)N3CCOCC3)O[C@H](OCCCCO)C2)c2ccccc21 | -51.6%
16 | N#CCC(=O)Nc1ccc(C(=O)NCC(c2ccco2)N2CCCCC2)cc1 (stereo not drawn) | 5.07%
17 | Cc1nc2cc(Cl)c(Cl)cc2n1CCCO | -7.59%
18 | CSc1cccc(N2CC(C(=O)Nc3ccccc3N3CCCC3)CC2=O)c1 (stereo not drawn) | -27.4%
19 | Cc1ccc(C)c(S(=O)(=O)N=Nc2c(O)[nH]c3ccccc23)c1 | 57.5%
20 | O=C(CN1CCC(n2cnc3cc(F)ccc32)CC1)Nc1ccccc1Br | -87.8%
21 | CC(C)c1ccc(OC(=O)c2cccc(S(=O)(=O)N3CCN(C)CC3)c2)cc1 | 14.2%
22 | COc1ccc(CC(=O)Nc2nc3ccccc3[nH]2)cc1 | 5.36%
23 | C/C(CC(=O)Nc1ccc([N+](=O)[O-])cc1)=N\NC(=O)c1ccccc1[N+](=O)[O-] | 8.67%

Row | Structure (SMILES) | hERG current change (%, negative = inhibition) at 10uM
24 | N#CC(C#N)=NNc1ccc([N+](=O)[O-])cc1 | -2.55%
25 | Cc1ccc([N+](=O)[O-])cc1/C=N/Nc1nnnn1-c1ccccc1 | -7.28%
26 | COc1ccc(CN2CN(c3ccc(Cl)cc3)C(=O)N(n3cnnc3)C2)cc1 | -38.6%
27 | O=S(=O)(/C=C/c1ccccc1)Nc1ccc(N2CCOCC2)cc1 | -18.4%
28 | O=C(/C=C(\O)c1ccccc1)C(=O)NNC(=O)c1ccccc1[N+](=O)[O-] | 17%
29 | COC(=O)c1ccc(N2CCOCC2)c(NC(=O)Nc2cccc(OC)c2)c1 | -20.4%
30 | CC(=O)Nc1sc(C)c(C)c1C(=O)Nc1ccc(C)cc1 | 8.19%
31 | Cc1ccc(N(Cc2ccco2)C(=O)c2ccc(N3CCCCC3)c([N+](=O)[O-])c2)cc1 | -4.74%
32 | CC1CN(C(=O)CN2C(=O)NC3(CCCCCCC3)C2=O)CC(C)O1 (stereo not drawn) | 9.22%
33 | CC(C)C(=O)Nc1nnc(S(=O)(=O)N(C)c2ccc(Cl)cc2)s1 | 7.58%
34 | CCCCc1ccc(NC(=O)COCC)cc1 | -3.7%
35 | Cl.NCCc1cnc[nH]1 | 16.6%
36 | O=C1OCCC1Sc1nnc(-c2ccccc2Cl)n1Cc1ccccc1 (stereo not drawn) | 2.19%
37 | CCOC(=O)c1sc(NC(=O)c2ccoc2C)c(C(N)=O)c1C | 5.88%
38 | O=C(NCCCN1CCCC1=O)c1ccc(NS(=O)(=O)c2cccc([N+](=O)[O-])c2)cc1 | 2.78%
39 | COc1cc(Cl)c(S(=O)(=O)NCc2ccccn2)cc1Cl | -3%
40 | CCOC(=O)c1csc(-c2ccc(OC)c(OC)c2)n1 | 3.08%
41 | COc1ccc(CNC(=O)CN(C(=O)c2ccc(CN3CCOCC3)o2)C2CCCC2)cc1 | 1.15%
42 | CSCCC(NC(=O)CCN1C(=O)c2ccccc2C1=O)C(=O)O (stereo not drawn) | 12.2%
43 | CCc1cc(=O)oc2cc(OC(C)=O)cc(OC(C)=O)c12 | 5.05%
44 | O=C(N/N=C/c1ccccc1OCc1ccccc1)c1cccs1 | 5.13%
45 | COc1ccccc1-n1c(SCC(=O)O)nc2c(sc(=S)n2-c2ccc(C)c(C)c2)c1=O | 14.6%
